Laboratory results published in the supplement of paper PMC10369915.
The list shows a part of the results. Cut-off read from the data, not from the text of the source: active = 3.2 or more and inactive = the rest. Most of these values are background signal.

Tests used:
Assay in all cases: enrichment score (SH2-bound / input frequency) (ratio); bacterial display of known human phosphotyrosine sites (pTyr-Var adds point mutants) read by sequencing; higher = stronger binding; tyrosines were phosphorylated by kinases first
Details in all cases: peptide library: pTyr-Var
[1] = target: SHP2 C-SH2 domain E139D
[2] = target: SHP2 C-SH2 domain wild-type
[3] = target: SHP2 N-SH2 domain L43F
[4] = target: SHP2 N-SH2 domain T42A
[5] = target: SHP2 N-SH2 domain T52S
[6] = target: SHP2 N-SH2 domain wild-type

Measured: enrichment score
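Note: displayed peptides selected on beads carrying the immobilized SH2 domain, with library peptides lacking any tyrosine serving as negative controls.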

LEFGDCHPLKP [VPS35L_Y32_Y32C]
inactive: [1] 0.885 | [2] 0.906 | [3] 1.06 | [4] 0.805 | [5] 0.786 | [6] 0.963

QKLPLYILENN [VPS13B_Y2774_S2773L]
inactive: [1] 1.49 | [2] 1.05 | [3] 1 | [4] 1.07 | [5] 1.12 | [6] 1.23

GVASDYKCVDP [VPS13B_Y1991_I1994V]
inactive: [1] 0.954 | [2] 0.852 | [3] 0.652 | [4] 0.626 | [5] 0.72 | [6] 0.771

VVRSLYEDLED [VHL_Y185_I180V]
inactive: [1] 1 | [2] 0.739 | [3] 0.856 | [4] 0.67 | [5] 0.69 | [6] 0.833

VKPENYRRLDI [VHL_Y175]
inactive: [1] 0.666 | [2] 0.561 | [3] 0.566 | [4] 0.466 | [5] 0.617 | [6] 0.537

IVRSLYEDVED [VHL_Y185_L188V]
inactive: [1] 0.926 | [2] 0.876 | [3] 0.923 | [4] 0.997 | [5] 0.812 | [6] 0.909

SVMAEYGLYRA [VSX2_Y219_G223R]
inactive: [1] 1.02 | [2] 0.918 | [3] 1.01 | [4] 0.745 | [5] 0.931 | [6] 0.953

ERRLIYTSDPK [VPS13D_Y864]
inactive: [1] 0.663 | [2] 0.739 | [3] 0.899 | [4] 0.588 | [5] 1.07 | [6] 0.786

SVMAEYGLFAA [VSX2_Y219_G223A_YF]
inactive: [1] 1.1 | [2] 0.944 | [3] 0.914 | [4] 0.872 | [5] 0.903 | [6] 0.871

AEYGLYAAMVR [VSX2_Y222_G223A]
inactive: [1] 0.834 | [2] 0.819 | [3] 0.813 | [4] 0.726 | [5] 0.623 | [6] 0.988

SVMAEYGLFGA [VSX2_Y219_YF]
inactive: [1] 0.905 | [2] 0.75 | [3] 0.71 | [4] 0.707 | [5] 0.857 | [6] 0.768

DKPENYRRLDI [VHL_Y175_V170D]
inactive: [1] 0.463 | [2] 0.408 | [3] 0.436 | [4] 0.327 | [5] 0.611 | [6] 0.354

IVRSLYKDLED [VHL_Y185_E186K]
inactive: [1] 1.07 | [2] 0.774 | [3] 1.15 | [4] 0.768 | [5] 0.865 | [6] 0.826

VKPENYWRLDI [VHL_Y175_R176W]
inactive: [1] 1 | [2] 0.957 | [3] 0.822 | [4] 1.02 | [5] 1.07 | [6] 1.19

RRIHSNRGHLW [VHL_Y112_Y112N]
inactive: [1] 0.321 | [2] 0.356 | [3] 0.329 | [4] 0.315 | [5] 0.276 | [6] 0.357

IVRSLYEDPED [VHL_Y185_L188P]
inactive: [1] 0.87 | [2] 0.959 | [3] 0.99 | [4] 0.831 | [5] 1.05 | [6] 0.925

KNSSIYVVANI [VNN1_Y134_N131S]
inactive: [1] 1.26 | [2] 1.56 | [3] 1.38 | [4] 1.44 | [5] 1.32 | [6] 1.59

FKPENYRRLDI [VHL_Y175_V170F]
inactive: [1] 0.739 | [2] 0.775 | [3] 0.808 | [4] 0.798 | [5] 0.751 | [6] 0.712

SVMAEYGLYGA [VSX2_Y219]
inactive: [1] 0.962 | [2] 0.71 | [3] 0.709 | [4] 0.634 | [5] 0.925 | [6] 0.91
